# PubChem BioAssay AID588342 (National Center for Advancing Translational Sciences (NCATS), 2011)
# Screen size: about 360,000 compounds; about 25,000 (6.9%) were called active. The shares of active, inactive and inconclusive entries below differ from those in the screen. The call rests on the fitted dose curve; in most records, active means well fitted inhibition curve with a large enough effect; inconclusive means small, poorly fitted or top-dose-only effect; inactive means flat fitted curve, though single readings scatter. Potencies of inconclusive entries are doubtful fits and often do not repeat.
# Molecular target: Luciferin 4-monooxygenase (Photinus pyralis) (UniProt P08659)
# Assay: qHTS profiling assay for firefly luciferase inhibitor/activator using purifed enzyme and Km concentrations of substrates (counterscreen for miR-21 project); further: nearly all actives have a fitted effect of over 55% in size;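 on activity change, negative = inhibition: plate controls were vehicle for no effect and reference inhibitor for full effect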
# Settings: purified FLuc, luminescence inhibition; series mostly up to 57.5 µM; activity change, negative = inhibition: at the top concentration
# In short: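 Purified P. pyralis luciferase (10nM final) with 10uM D-luciferin and 10uM ATP (Km levels) in 50mM Tris acetate pH 7.5, 10mM Mg acetate, 0.01% Tween-20, 0.05% BSA; qHTS 6-point titration, ~60 µM downward; luminescence read.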
# Potency means the concentration at half of the fitted maximal effect; tags describe the fitted curve by direction and shape.
# Sequence of UniProt P08659 (P08659 whole entry, looked up): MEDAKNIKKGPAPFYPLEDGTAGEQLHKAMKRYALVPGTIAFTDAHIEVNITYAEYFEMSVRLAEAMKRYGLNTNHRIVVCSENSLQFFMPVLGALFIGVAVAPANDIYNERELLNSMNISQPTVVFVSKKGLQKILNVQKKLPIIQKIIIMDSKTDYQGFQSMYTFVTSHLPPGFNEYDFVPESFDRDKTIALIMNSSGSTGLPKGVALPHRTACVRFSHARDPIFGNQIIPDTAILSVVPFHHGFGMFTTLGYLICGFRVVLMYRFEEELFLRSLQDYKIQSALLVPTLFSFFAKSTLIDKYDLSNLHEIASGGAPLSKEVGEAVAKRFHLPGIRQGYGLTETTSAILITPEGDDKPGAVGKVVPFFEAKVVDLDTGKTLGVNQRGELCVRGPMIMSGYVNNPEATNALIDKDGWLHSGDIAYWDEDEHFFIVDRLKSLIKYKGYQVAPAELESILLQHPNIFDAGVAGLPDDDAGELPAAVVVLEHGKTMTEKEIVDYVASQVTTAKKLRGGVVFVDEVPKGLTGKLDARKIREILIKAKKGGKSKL
SMILES,Potency,"activity change, negative = inhibition"
Cc1ccc(NC(C#N)c2ccccc2OCc2ccccc2)cc1 (configuration not stated),"inconclusive: 26.9 µM [inhibitor, single point]",–
O=C(O)c1ccc(-c2ccccn2)s1,"inconclusive: 23.9 µM [inhibitor, single point]",–
O=C(CSc1n[nH]c(=O)[nH]c1=O)N/N=C/C=C\c1ccccc1,"inconclusive: 33.8 µM [inhibitor, partial curve, poor fit]",–
COCC(C)n1c(C)cc(C(=O)CSc2ncccn2)c1C (configuration not stated),active: 15.1 µM,–
CN(C)c1cccc(C(=O)OCC(=O)c2ccc[nH]2)c1,active: 10.7 µM,–
Cc1ccccc1Cn1c2ccccc2c2cnn(CC(=O)NCCCc3ccccc3)c(=O)c21,–,inactive: -0.392%
CC(=O)Nc1ccc(NC(=O)C(C)OC(=O)c2c(C)nn(-c3ccccc3)c2Cl)cc1 (configuration not stated),"inconclusive: 21.3 µM [inhibitor, single point]",–
Cc1cc(C(=O)Nc2ccccn2)no1,"inconclusive: 19 µM [inhibitor, partial curve]",–
O=C(Nc1ccc(Br)cc1F)C(NS(=O)(=O)c1cccc2nsnc12)c1ccccc1 (configuration not stated),"inconclusive: 37.9 µM [inhibitor, partial curve, poor fit]",–
Cc1cc(C(=O)NCc2cccnc2)n(-c2ccccc2)n1,–,inactive: 3.16%
C/C(=N\NC(N)=O)C1CC(Cc2ccccc2)C(=O)O1 (configuration not stated),–,inactive: 4.18%
C/C(=N/N1CCN(Cc2cccc3ccccc23)CC1)c1ccco1,"inconclusive: 26.9 µM [inhibitor, single point]",–
Cc1csc2nc(CSc3ccc(Cl)cc3)cn12,active: 5.36 µM,–
CCOC(=O)C(CCC(C)=O)C(=O)c1ccccc1 (configuration not stated),–,inactive: 0.455%
Cc1ccc(NS(=O)(=O)c2cc(NC(=O)c3ccc4c(c3)NC(=O)CS4)ccc2C)c(C)c1,–,inactive: -17.1%
CC/C(=C(/CC)c1ccc(O)cc1)c1ccc(O)cc1,"inconclusive: 21.3 µM [inhibitor, partial curve, poor fit]",–
O=C(N/N=C/c1ccncc1)NC12CC3CC(CC(C3)C1)C2,"inconclusive: 42.6 µM [inhibitor, partial curve, poor fit]",–
COc1ccc2nc3sc(C(=O)NCc4cccs4)c(N)c3cc2c1,active: 0.757 µM,–
CCc1ccc(NS(=O)(=O)c2ccc3[nH]cc(C(=O)NCc4ccc(C)cc4)c(=O)c3c2)cc1,"inconclusive: 19 µM [inhibitor, partial curve, poor fit]",–
Cc1ccc2cc3c(nc2c1)N(c1ccccc1)CC3,"inconclusive: 19 µM [inhibitor, partial curve, poor fit]",–
CCc1ccc(NC(=S)NC2CC3CCCC(C2)N3Cc2ccccc2)cc1 (configuration not stated),"inconclusive: 23.9 µM [inhibitor, single point]",–
CC(C)(C)c1ccc(OCCCC(=O)NC2=NCCS2)cc1,"inconclusive: 21.3 µM [inhibitor, single point]",–
COC(=O)CSc1nc2ccc(NC(C)=O)cc2s1,"inconclusive: 26.9 µM [inhibitor, partial curve, poor fit]",–
COc1ccccc1N1CCN(C(c2cccs2)C(C)NC(=O)c2cccs2)CC1 (configuration not stated),–,inactive: -0.402%

SMILES,Potency,"activity change, negative = inhibition"
COc1cccc(NC(=O)c2ncc(Cl)c(Cl)c2Cl)c1,active: 5.36 µM,–
Cc1nn(-c2ccccc2)c(C)c1C(=O)OCC(=O)N(C)C1CCS(=O)(=O)C1 (configuration not stated),"inconclusive: 23.9 µM [inhibitor, single point]",–
COc1ccccc1N1N=C(c2ccc([N+](=O)[O-])cc2)CC1c1ccccc1 (configuration not stated),"inconclusive: 37.9 µM [inhibitor, partial curve, poor fit]",–
c1ccc(NCc2nc3ccccc3n2CCOc2ccccc2)cc1,"inconclusive: 26.9 µM [inhibitor, single point]",–
O=C(Nc1ccccc1N1CCOCC1)c1ccc2c(c1)OCO2,"inconclusive: 30.1 µM [inhibitor, partial curve, poor fit]",–
CCc1ccc(OCC(=O)Oc2ccc([N+](=O)[O-])cc2)cc1,"inconclusive: 30.1 µM [inhibitor, partial curve, poor fit]",–
COc1ccc(-n2c(=S)[nH]c3cc(C(=O)NCc4cccnc4)ccc3c2=O)cc1,–,inactive: 2.62%
O=C(CCc1ccccc1)Nc1cccc(-c2nnc(-c3ccco3)o2)c1,–,inactive: -2.35%
CC(OC(=O)c1ccccc1NCCO)C(=O)Nc1ccnn1C(C)C (configuration not stated),–,inactive: 4.05%
N#C/C(=C\c1ccc[nH]1)C(=O)Nc1ccccc1Cl,–,inactive: -16.4%
Cc1c(-c2ccccc2)nnn1-c1ccc(F)cc1F,active: 21.3 µM,–
Cc1noc(C)c1COC(=O)c1ccc(N(C)C)cc1,"inconclusive: 26.9 µM [inhibitor, partial curve, poor fit]",–
NS(=O)(=O)c1cccc(NS(=O)(=O)c2ccc(/C=C/C(=O)OCC(=O)c3ccccc3)cc2)c1,"inconclusive: 26.9 µM [inhibitor, partial curve, poor fit]",–
Cc1c(/C=C/C(=O)c2ccc(Cl)s2)cnn1C,active: 1.51 µM,–
CC(C)CCn1c(CN2CCN(c3cccc(Cl)c3)CC2)nc2c1c(=O)n(C)c(=O)n2C,–,inactive: 0.971%
c1ccc2c(c1)Nc1nccnc1S2,active: 23.9 µM,–
CCc1ccc(NC(=S)NCc2cccnc2)cc1,–,inactive: -14%
CCCn1c(=O)[nH]c(=O)c2c(C(=O)OCC)cc(-c3cccs3)nc21,"inconclusive: 15.1 µM [inhibitor, partial curve, poor fit]",–
N#C/C(=C/c1ccc2c(c1)OCO2)C(=O)Nc1ccc(O)cc1,"inconclusive: 7.57 µM [inhibitor, partial curve]",–
O=C(NCCCN1CCOCC1)c1sc2ccccc2c1Cl,"inconclusive: 26.9 µM [inhibitor, partial curve, poor fit]",–
CCn1c(SCC(=O)Nc2ccc(C)cc2)nnc1-c1ccc(O)cc1,–,inactive: -15.6%
N#Cc1ccsc1NC(=O)c1cccc(-n2cnnn2)c1,"inconclusive: 26.9 µM [inhibitor, partial curve, poor fit]",–
CC(/C=C1\SC(=S)N(C(C(=O)O)c2ccccc2)C1=O)=C\c1ccccc1 (configuration not stated),"inconclusive: 23.9 µM [inhibitor, single point]",–
O=c1c(-c2ccccc2Cl)c[nH]n1-c1ccccc1,"inconclusive: 37.9 µM [inhibitor, partial curve, poor fit]",–

SMILES,Potency,"activity change, negative = inhibition"
CCOC(=O)C1CCCN(C(=O)c2cc(-c3ccncc3)nc3ccccc23)C1 (configuration not stated),–,inactive: -6.79%
Cc1cc(OCC(=O)N2CCC(c3nc4ccccc4s3)CC2)ccc1Cl,"inconclusive: 21.3 µM [inhibitor, partial curve, poor fit]",–
O=C(CSc1ncc(-c2ccccc2)[nH]1)Nc1cccc(Br)c1,"inconclusive: 19 µM [inhibitor, partial curve]",–
Cc1cc([N+](=O)[O-])ccc1NC(=O)c1csc(C)c1C,active: 3.79 µM,–
O=C(Nc1nc2c(s1)CN(Cc1ccccc1)CC2)C1CCCC1,–,inactive: -18.6%
CC(=O)c1ccc(NCC2COc3ccccc3O2)c([N+](=O)[O-])c1 (configuration not stated),active: 16.9 µM,–
CC1=CC2=C(OC1N(C)C)c1cccc3cccc(c13)C2=O (configuration not stated),"inconclusive: 26.9 µM [inhibitor, partial curve, poor fit]",–
O=C(Nc1ccccc1C(=O)O)c1cccc(N2C(=O)c3ccccc3C2=O)c1,"inconclusive: 37.9 µM [inhibitor, single point]",–
CC1CCCN(C(=S)SCC(=O)c2cc(Br)cc(Br)c2O)C1 (configuration not stated),"inconclusive: 37.9 µM [inhibitor, single point]",–
O=C(Cn1cc(C(=O)c2ccco2)c2ccccc21)Nc1ccccc1,"inconclusive: 37.9 µM [inhibitor, partial curve, poor fit]",–
c1ccc(-c2nnc(-c3ccncc3)o2)cc1,"inconclusive: 26.9 µM [inhibitor, single point]",–
CCOc1ccc(NC(=O)c2ccc(F)c(S(=O)(=O)N(Cc3ccc(C(=O)OC)cc3)Cc3ccc(OC)c(OC)c3)c2)cc1,–,inactive: 4.21%
COc1ccc(Cl)cc1Nc1ccc2cc(S(=O)(=O)N3CCCCC3)ccc2n1,–,inactive: 5.87%
O=C(O)c1ccc(-n2cccc2)cc1O,"inconclusive: 19 µM [inhibitor, single point]",–
Cc1cc(C(=O)COC(=O)c2ccc(Br)o2)c(C)n1C,active: 8.49 µM,–
O=C(Nc1cccc(Cl)c1)Nc1cccc(Cl)c1,"inconclusive: 10.7 µM [inhibitor, partial curve]",–
COc1ccc(S(=O)(=O)N2CCC(C(=O)NC3CCCCC3)CC2)cc1C,–,inactive: 0.478%
COC(=O)c1cccc(NC(=O)CSc2nnc(C)n2Cc2ccccc2)c1,–,inactive: 0.181%
Cc1cc(C)cc(NC(=O)c2ccc3nc[nH]c3c2)c1,active: 6.75 µM,–
C/C(=N\N=C1\NC(=O)C(CC(=O)Nc2ccc(C)c(Cl)c2)S1)C(C)(C)C (configuration not stated),"inconclusive: 37.9 µM [inhibitor, partial curve, poor fit]",–
OCCN(Cc1nc(-c2ccc3c(c2)OCO3)no1)Cc1cccs1,"inconclusive: 30.1 µM [inhibitor, single point]",–
O=C(Nc1ccc(S(=O)(=O)N2CCCCCC2)cc1)c1ccc(Br)o1,"inconclusive: 23.9 µM [inhibitor, partial curve, poor fit]",–
Cc1ccc2nc(-c3cccs3)c(Nc3ccc4c(c3)OCCO4)n2c1,"inconclusive: 8.49 µM [inhibitor, partial curve]",–
CC(=O)Nc1ccc(OC(=O)c2ccc(Cl)cc2)cc1,"inconclusive: 30.1 µM [inhibitor, single point]",–
